Data as given in PMC4336329 (PLoS ONE, 2015).
The whole screen tested about 310,000 compounds, of which about 2,200 (0.71%) showed an effect of 50% or more. Effects have a minus sign here. The list shows a part of the results.

biological target: human ether-à-go-go-related gene (hERG) potassium channel (human, UniProt Q12809); assay: primary screen, population patch clamp on CHO cells stably expressing hERG
Sequence (Q12809 whole entry, looked up): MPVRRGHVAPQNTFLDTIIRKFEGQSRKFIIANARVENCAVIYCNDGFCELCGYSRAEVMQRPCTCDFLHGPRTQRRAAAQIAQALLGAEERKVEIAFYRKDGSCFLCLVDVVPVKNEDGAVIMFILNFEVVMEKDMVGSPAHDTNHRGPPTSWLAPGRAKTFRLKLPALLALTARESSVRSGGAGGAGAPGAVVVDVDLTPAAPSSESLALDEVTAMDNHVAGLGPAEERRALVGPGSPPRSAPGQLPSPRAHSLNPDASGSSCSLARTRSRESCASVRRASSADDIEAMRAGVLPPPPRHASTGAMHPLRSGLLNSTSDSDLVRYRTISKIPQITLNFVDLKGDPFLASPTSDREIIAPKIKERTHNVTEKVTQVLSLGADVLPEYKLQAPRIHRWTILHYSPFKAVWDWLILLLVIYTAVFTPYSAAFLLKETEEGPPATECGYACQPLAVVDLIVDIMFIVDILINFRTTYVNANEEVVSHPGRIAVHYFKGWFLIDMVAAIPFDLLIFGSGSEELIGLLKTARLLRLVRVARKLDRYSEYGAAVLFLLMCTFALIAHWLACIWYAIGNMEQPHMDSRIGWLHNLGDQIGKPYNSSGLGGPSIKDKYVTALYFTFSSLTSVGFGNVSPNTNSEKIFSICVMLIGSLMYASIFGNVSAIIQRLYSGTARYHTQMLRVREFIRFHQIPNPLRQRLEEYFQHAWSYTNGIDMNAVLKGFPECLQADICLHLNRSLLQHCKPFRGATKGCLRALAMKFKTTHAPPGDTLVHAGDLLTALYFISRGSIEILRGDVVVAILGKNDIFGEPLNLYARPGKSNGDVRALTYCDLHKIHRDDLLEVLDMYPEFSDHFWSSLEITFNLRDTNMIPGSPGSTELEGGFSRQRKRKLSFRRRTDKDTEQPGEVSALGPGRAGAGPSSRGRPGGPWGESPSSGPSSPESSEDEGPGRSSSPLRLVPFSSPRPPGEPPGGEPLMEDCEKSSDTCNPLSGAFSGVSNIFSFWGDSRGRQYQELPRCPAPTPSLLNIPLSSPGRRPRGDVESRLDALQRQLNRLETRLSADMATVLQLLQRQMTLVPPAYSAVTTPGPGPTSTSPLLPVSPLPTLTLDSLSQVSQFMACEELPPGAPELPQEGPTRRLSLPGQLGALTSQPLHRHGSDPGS

Compound	hERG current change (%, negative = inhibition) at 1uM [%]
COC(=O)c1[nH]c2cc(OC)c(OC)cc2c1NC(=O)c1cccc(OC)c1	-0.376
O=C(CCC(=O)NNC(=O)c1ccc(Cl)cc1Cl)NCc1ccccc1	5.65
CN(Cc1ccccc1)C(=O)COC(=O)/C=C/c1ccco1	11.9
CCCn1c2c(c(O)c(C(=O)Nc3ccccc3)c1=O)CCCC2	15.3
CCOC(=O)c1cc(S(=O)(=O)N2CCN(c3ccccc3OC)CC2)cn1C	14.8
CC(C)CNC(=S)Nc1ccc(S(N)(=O)=O)cc1	10.7
O=C(CN1CCOCC1)Nc1nc2ccc(F)cc2s1	6.59
O=C(CSc1ccc(Cl)cc1)Nc1cc(-c2nc3ncccc3o2)ccc1Cl	0.8
CC(C)(C)c1ccc(C(=O)NNC(=S)NCC2CCCO2)cc1 (stereo not drawn)	13.7
Cn1ncc(Cl)c1C(=O)Nc1nnc(C2CC2)s1	9.46
COC(=O)Cn1c(CN2CCOCC2)nc2c1c(=O)n(C)c(=O)n2C	12.2
CCOc1ccc(N2CC(=O)SC2=S)cc1	1.02
O=C(/C=C/c1ccc(Cl)cc1)NCc1ccncc1	9.09
Cc1cc(O)c(C(C[N+](=O)[O-])c2ccc(Cl)cc2)c(=O)o1 (stereo not drawn)	3.67
O=c1cc(-c2ccccc2)nc2nc(-c3ccccc3)[nH]n12	15.4
CC(NCc1cc(Br)ccc1OCC(N)=O)C12CC3CC(CC(C3)C1)C2.Cl (stereo not drawn)	0.529
CN(CC(=O)Nc1ccc(F)c(F)c1F)C(=O)CC1CCCCC1	5.61
CCCCN(C(=O)c1ccc(N2CCCC2=O)cc1)c1c(N)n(CCCC)c(=O)[nH]c1=O	1.89
CCn1c(CNC(=O)c2ccccc2Br)nnc1SCC(=O)NC1=NCCS1	15.7
NNC(=O)C(=O)Nc1ccc(Cl)c(Cl)c1	10.8
COc1ccc(N2CCN(C(=O)NC(=O)c3ccc(Cl)cc3)CC2)cc1	6.97
COc1ccc(C2C(C(C)=O)=C(O)C(=O)N2CCc2c[nH]c3ccccc23)cc1OC (stereo not drawn)	18.2
COc1ccc(-c2csc3ncnc(N4CCN(c5cccc(C)c5C)CC4)c23)cc1	13.6

Compound	hERG current change (%, negative = inhibition) at 1uM [%]
CC1(c2nnc(Cc3ccccc3)o2)CC(c2ccc(C#N)cc2)=NO1 (stereo not drawn)	-48.1
COc1ccc(NC(=O)C/C(C)=N/NC(=O)COc2ccc(OC)cc2)cc1	8.37
CC(C)OCCCNc1ncc2c(n1)CC(c1ccccc1)CC2=O (stereo not drawn)	-4.95
O=C(O)C1CC(=O)N(Cc2cccs2)C1 (stereo not drawn)	27
CCOc1cc(S(=O)(=O)N2CCN(CC)CC2)ccc1Cl	6.75
CN1/C(=C/C2CC(=O)N(c3ccc([N+](=O)[O-])cc3)C2=O)C(C)(C)c2ccccc21 (stereo not drawn)	-5.44
CS(=O)(=O)N(CC(=O)N1CCCC1)c1ccc2c(c1)OCCO2	-20.8
CN(C)S(=O)(=O)c1ccc(C(=O)Nc2ccccc2OC(F)(F)C(F)F)cc1	-16.3
O=C(CCNS(=O)(=O)c1ccccc1C(F)(F)F)NNC(=O)c1csc(N2CCOCC2)n1	0.442
COc1ccc(-n2cnnc2SCC(=O)Nc2cccc(S(N)(=O)=O)c2)cc1	16.7
Cc1cc(OC(=O)C(C)(C)C)c([N+](=O)[O-])c(=O)[nH]1	14.3
COc1ccc(C(=O)NC2CCN(Cc3ccccc3)C2)cc1S(=O)(=O)N1CCOCC1 (stereo not drawn)	7.5
O=C(NC1CCCCC1)C(c1ccccn1)N(C(=O)c1csnn1)C1CCCCC1 (stereo not drawn)	13.4
CCCC(=O)Nc1ccc(S(=O)(=O)N2CCOCC2)cc1	9.69
Cc1ccc(OCc2nnc(SCCN3CCOCC3)n2C)cc1.O=C(O)C(=O)O	8.12
COc1cccc(C(=O)OCC(=O)c2c(N)n(C)c(=O)n(C)c2=O)c1	5.26
CC(=O)c1c(C)[nH]c(C(=O)N2CCN(c3ccccn3)CC2)c1C	11.1
COc1ccccc1Cn1c(=S)[nH]c2cc(C(=O)NCCCN3CCOCC3)ccc2c1=O	9.52
O=C(Cc1ccccc1)N/N=C/c1ccc[nH]1	13.2
CCN(CC)S(=O)(=O)c1cccc(C(=O)NCC(c2ccccc2)N(C)C)c1 (stereo not drawn)	-0.959
CC(C(=O)NC1CCCC1)N(C(=O)Cn1nnc(-c2ccc(F)cc2)n1)c1ccccc1F (stereo not drawn)	12.6
CC(C)n1c(SCC(=O)c2ccc3c(c2)OCCO3)nc2c1c(=O)n(C)c(=O)n2C	8.41
O=C(Nc1cc(S(=O)(=O)N2CCCC2)ccc1OCC(F)(F)F)c1ccccc1F	16.1

Compound	hERG current change (%, negative = inhibition) at 1uM [%]
CC(C)(C)C(=O)CC(=O)Nc1ccc(Cl)c(N)c1	18.6
CCOc1ccc2nc3c(cc2c1)CN(CCOC)C(=NCCOC)S3	-0.794
Clc1ccc(-c2nnc(CCc3ccccc3)o2)c(Cl)c1	3.41
CCOc1ccccc1/C=C/c1onc(C)c1S(=O)(=O)N1CCC(C(=O)NC)CC1	1.45
CC(C)CNC(=O)Cn1c(=O)c2c(ncn2CC(C)C)n(Cc2ccccc2)c1=O	12.3
CC1CN(C(=O)CCC(=O)N2CCCCC2)c2ccccc2O1 (stereo not drawn)	11.1
CC(=O)c1cccc(-n2c(CCC(=O)O)ccc2-c2ccccc2)c1	15
COc1cccc(N2CCN(CC(=O)Nc3ccc(-n4cnnn4)cc3)CC2)c1	14.1
CN(C)CCNc1ncnc2sc(-c3ccccc3)cc12	9.8
CN(C)c1c(F)cc(C(=O)NC(=O)NCc2cccnc2)cc1F	10.5
COc1ccc(C(=O)NC2CCN(CC(=O)N3CCCCC3)CC2)cc1	15.6
COC(=O)C1=C(C)Nc2nnnn2C1c1ccc(Cl)cc1Cl (stereo not drawn)	3.29
Cc1cccc(NC(=O)c2cnn(-c3ccccc3)c2C)c1C	10.2
CCCCCc1n[nH]c2c1CCCC2	9.3
CCc1ccc(-c2csc(NC(=O)COC(=O)CCc3nc4ccccc4s3)n2)cc1	2.9
Cc1oc(-c2ccccc2Cl)nc1CSCC(=O)NC1CCCC1	0.667
CCCCC/C=C/C1=CC(=O)C[C@H](c2ccc(Cl)cc2)C1	-1.14
Cc1cc(C)c([N+](=O)[O-])cc1NC(=O)CCSc1ccccc1Cl	8.87
CC(C)Cn1cnc2c1c(=O)n(CC(=O)N(C)C)c(=O)n2Cc1ccccc1	9.3
c1ccc2c(Oc3ccc4c(c3)OCO4)nncc2c1	17.3
CCCCc1c(C)[nH]c(C(=O)OCC)c1C	7.36
Cn1cc(CCCC(=O)NCc2ccc(F)cc2)c2ccccc21	13.3
Cc1onc(-c2ccccc2Cl)c1C(=O)N1CCN(c2ccccc2)CC1	1.1

Compound	hERG current change (%, negative = inhibition) at 1uM [%]
Cc1cccc(-c2noc(CNS(=O)(=O)c3ccccc3)n2)c1	13.2
COc1cc(OC)cc(C(=O)NCCN2C(=O)S/C(=C\c3cccs3)C2=O)c1	26.4
Cc1nc(-c2cccc(NC(=O)c3ccc(Br)o3)c2)cs1	9.08
CC1(NC(=O)Cn2cc(C(F)(F)F)ccc2=O)CCS(=O)(=O)C1 (stereo not drawn)	8.03
CC1CCCCN1Cc1cnc(Cl)s1 (stereo not drawn)	0.0979
CCn1nc(NC(=O)c2ccco2)c2cc3ccc(C)cc3nc21	3.29
CC(NS(=O)(=O)c1cccc(Cl)c1)C(=O)Nc1ccc(-c2nc3ccccc3s2)cc1 (stereo not drawn)	2.34
Cc1ccc(SCC2CNc3nc4ccccc4c(=O)n32)c(C)c1 (stereo not drawn)	-11.8
COc1cc(NC(=O)C2CCCN2S(=O)(=O)c2cccc3cccnc23)cc(OC)c1OC (stereo not drawn)	18.3
O=C(NC(=O)N1CCCCCC1)c1ccccc1	6.46
NS(=O)(=O)c1ccc(NC(=O)c2c(F)cccc2Cl)cc1	13.4
CCN(CC)C(=O)c1[nH]cnc1C(=O)Nc1cccc(C)c1	16.9
CC(C)Cn1c(N)c(C(=O)CSc2cc(Cl)ccc2Cl)c(=O)n(C)c1=O	0.0188
CCCCn1c(N)c(N(CCOC)C(=O)c2cc(-c3ccc(OC)c(OC)c3)nc3ccccc23)c(=O)[nH]c1=O	3.55
CC(C)C[C@H](NC(=O)C1CCN(C(=O)[C@H](Cc2ccccc2)NC(=O)OC(C)(C)C)CC1)C(=O)O	15.7
Cc1ccc2oc(Nc3nc(C)cc(C)n3)nc2c1	3.79
CCCCc1ccc(C2C(C#N)=C(N)SC(N)=C2C#N)s1	10.1
COC(=O)[C@H](Cc1ccccc1)NC(=O)NCc1cccs1	4.86
COc1ccc(N2C(=O)C3CCCN3C2c2ccc(Cl)cc2)cc1 (stereo not drawn)	5.83
CCc1ccc2c(c1)cc(CN(C(=S)Nc1ccccc1Cl)C1CC1)c1nnnn12	-10.2
CC1CCN(c2nc3ccccc3n2CC(=O)c2ccccc2)CC1	19
